First the molecules themselves.
B1: Q9UKT9 (peptide)
chain: FDCPICGAAFTQKGNLLRHIKL
B2: Q9UKT9 (peptide)
chain: LWCPICGFWCTQKGNLLRHIKL
B3: Q9UKT9 (peptide)
chain: LKCEICGFECTQKGNLLRHIKL
B4: Q9UKT9 (peptide)
chain: FGCPICGRVFTQKGNLLRHIKL
B5: Q9UKT9 (peptide)
chain: FWCEICGRAFTQKGNLLRHIKL
B6: Q9UKT9 (peptide)
chain: FVCPICGAMFTQKGNLLRHIKL
B7: Q9UKT9 (peptide)
chain: FSCPICGHCFTQKGNLLRHIKL
B8: Q9UKT9 (peptide)
chain: FDCEQCGAHFTQKGNLLRHIKL
B9: Q9UKT9 (peptide)
chain: FYCEQCGAFFTQKGNLLRHIKL
B10: Q9UKT9 (peptide)
chain: FYCEICGRHFTQKGNLLRHIKL
B11: Q9UKT9 (peptide)
chain: FMCDVCGAIFTQKGNLLRHIKL
B12: Q9UKT9 (peptide)
chain: FLCEICGRGFTQKGNLLRHIKL
B13: Q9UKT9 (peptide)
chain: FYCPICGADFTQKGNLLRHIKL
B14: Q9UKT9 (peptide)
chain: LNCPICGFYCTQKGNLLRHIKL
B15: Q9UKT9 (peptide)
chain: FECPQCGALFTQKGNLLRHIKL
B16: Q9UKT9 (peptide)
chain: FWCDVCGAIFTQKGNLLRHIKL
B17: Q9UKT9 (peptide)
chain: FHCEICGAEFTQKGNLLRHIKL
B18: Q9UKT9 (peptide)
chain: FECDICGAFFTQKGNLLRHIKL
B19: Q9UKT9 (peptide)
chain: FKCEICGRDFTQKGNLLRHIKL
B20: Q9UKT9 (peptide)
chain: FMCPQCGAPFTQKGNLLRHIKL
B21: Q9UKT9 (peptide)
chain: FTCEQCGADFTQKGNLLRHIKL
B22: Q9UKT9 (peptide)
chain: FTCNQCGAHFTQKGNLLRHIKL
B23: Q9UKT9 (peptide)
chain: FWCDVCGACFTQKGNLLRHIKL
B24: Q9UKT9 (peptide)
chain: FMCSVCGHQFTQKGNLLRHIKL
B25: Q9UKT9 (peptide)
chain: FFCPQCGAQFTQKGNLLRHIKL
B26: Q9UKT9 (peptide)
chain: FRCPVCGADFTQKGNLLRHIKL
B27: Q9UKT9 (peptide)
chain: FFCDQCGAVFTQKGNLLRHIKL
B28: Q9UKT9 (peptide)
chain: LDCEICGFMCTQKGNLLRHIKL
B29: Q9UKT9 (peptide)
chain: FICNQCGHVFTQKGNLLRHIKL
B30: Q9UKT9 (peptide)
chain: FDCDQCGAYFTQKGNLLRHIKL
B31: Q9UKT9 (peptide)
chain: LTCNQCGFGCTQKGNLLRHIKL
B32: Q9UKT9 (peptide)
chain: FHCSVCGHMFTQKGNLLRHIKL

The text below walks through data of the supplement of paper PMC12645437, “Orthogonal IMiD-Degron Pairs Induce Selective Protein Degradation in Cells” (ACS Chemical Biology, 2025).

Some of the results follow.
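Also: jurkat cells carrying a lentiviral library of mutant zinc finger degrons fused to EGFP plus mCherry, mCherry+ cells FACS sorted, degron abundance counted by next-generation sequencing.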

This assay deals with no compound (DMSO). The assay is described as follows: log2 fold change of degron read counts, EGFP-low vs EGFP+ sorted cells; higher = lower degron-EGFP level without compound (poor expression or instability). The following applies: compound: DMSO control; 18 h.
Take B1: the “log2 fold change of degron read counts” value was -1.23.
To B2 belongs 3.05; to B3, -0.97; to B4, 0.202.
As to B5, the “log2 fold change of degron read counts” value was -0.145.
As for B6, the “log2 fold change of degron read counts” value was found to be 0.707.
For B7, the “log2 fold change of degron read counts” value is -0.462.
For the sequence B8, the “log2 fold change of degron read counts” value was -1.1.
The same measure for B9: -0.143.
As to B10, the “log2 fold change of degron read counts” value is -0.31.
Consider B11, for which the “log2 fold change of degron read counts” value was -0.445.
Turning to B12, the “log2 fold change of degron read counts” value is -1.94.
To B13 belongs -0.043; to B14, 1.45; to B15, -1.11.
To B16 belongs 0.889; to B17, -3.12; to B18, -1.62.
Consider B19, for which the “log2 fold change of degron read counts” value was -1.35.
Consider B20, for which the “log2 fold change of degron read counts” value was -1.03.
For the sequence B21, the “log2 fold change of degron read counts” value is -1.13.
For B22, the “log2 fold change of degron read counts” value was -0.627.
As to B23, the “log2 fold change of degron read counts” value was -0.683.
Regarding B24, the “log2 fold change of degron read counts” value is -0.972.
Take B25: the “log2 fold change of degron read counts” value is -0.955.
With B26, the “log2 fold change of degron read counts” value was -1.35.
For B27, the “log2 fold change of degron read counts” value is -0.393.
The same measure for B28: 1.15.
For B29, the “log2 fold change of degron read counts” value was -0.583.
The same measure for B30: -0.0859; for B31: 0.394; for B32: 0.36.
